Assay results: PMC12820563
This is one part of the list. The list includes weakly bound sequences.

biological target: T1, MBP-FoxP3dN (UniProt Q99JB6); test: PD-seq (MBP pull-down with sequencing); conditions: 20 mM Tris-HCl pH 7.5, 100 mM NaCl, 1.5 mM MgCl2, 0.4 uM protein, 0.1 uM dsDNA library, 30 min, room temperature, amylose pull-down; high values mean tight binding; double strand, one strand shown
T1 sequence: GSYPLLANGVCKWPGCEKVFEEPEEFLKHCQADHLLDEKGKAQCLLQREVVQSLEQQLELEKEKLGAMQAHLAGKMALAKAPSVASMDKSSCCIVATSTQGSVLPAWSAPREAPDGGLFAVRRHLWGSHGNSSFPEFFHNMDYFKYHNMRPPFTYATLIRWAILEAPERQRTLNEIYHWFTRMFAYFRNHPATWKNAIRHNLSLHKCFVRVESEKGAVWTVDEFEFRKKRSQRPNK

| Sequence | binding signal (RPM ratio (pull-down/input)) |
| --- | --- |
| GATGATTGTTCTCCCAGCTGATGAATTCGAAGTGTCGAGTAAACAAATTTTCCTAATCTTTCTGTTCAAGCGCCATCTAC | 0.452 |
| GATGATTGTTCTCCCAGCTGATGAATTTCTAATTTCGAGTAAACAAATTTTCCTAATCTTTCTGTTCAAGCGCCATCTAC | 0.301 |
| GATGATTGTTCTCCCAGCTGATGAATTGTTCAGATCGAGTAAACAAATTTTCCTAATCTTTCTGTTCAAGCGCCATCTAC | 0.284 |
| GATGATTGTTCTCCCAGCTGATGAATTTCAACATTCGAGTAAACAAATTTTCCTAATCTTTCTGTTCAAGCGCCATCTAC | 0.561 |
| GATGATTGTTCTCCCAGCTGATGAATTCATTGCTTCGAGTAAACAAATTTTCCTAATCTTTCTGTTCAAGCGCCATCTAC | 0.974 |
| GATGATTGTTCTCCCAGCTGATGAATTCTTTTTATCGAGTAAACAAATTTTCCTAATCTTTCTGTTCAAGCGCCATCTAC | 0.332 |
| GATGATTGTTCTCCCAGCTGATGAATTTTCTTCCTCGAGTAAACAAATTTTCCTAATCTTTCTGTTCAAGCGCCATCTAC | 0.205 |
| GATGATTGTTCTCCCAGCTGATGAATTCATCGCTTCGAGTAAACAAATTTTCCTAATCTTTCTGTTCAAGCGCCATCTAC | 0.549 |
| GATGATTGTTCTCCCAGCTGATGAATTATCTCCGTCGAGTAAACAAATTTTCCTAATCTTTCTGTTCAAGCGCCATCTAC | 0.202 |
| GATGATTGTTCTCCCAGCTGATGAATTGACCCAGTCGAGTAAACAAATTTTCCTAATCTTTCTGTTCAAGCGCCATCTAC | 0.221 |
| GATGATTGTTCTCCCAGCTGATGAATTCCGGATTTCGAGTAAACAAATTTTCCTAATCTTTCTGTTCAAGCGCCATCTAC | 0.249 |
| GATGATTGTTCTCCCAGCTGATGAATTGTCGGGATCGAGTAAACAAATTTTCCTAATCTTTCTGTTCAAGCGCCATCTAC | 0.302 |
| GATGATTGTTCTCCCAGCTGATGAATTATAAGAATCGAGTAAACAAATTTTCCTAATCTTTCTGTTCAAGCGCCATCTAC | 0.252 |
| GATGATTGTTCTCCCAGCTGATGAATTGGCGGTATCGAGTAAACAAATTTTCCTAATCTTTCTGTTCAAGCGCCATCTAC | 0.566 |
| GATGATTGTTCTCCCAGCTGATGAATTCCATCGCTCGAGTAAACAAATTTTCCTAATCTTTCTGTTCAAGCGCCATCTAC | 0.389 |
| GATGATTGTTCTCCCAGCTGATGAATTTCGGAAATCGAGTAAACAAATTTTCCTAATCTTTCTGTTCAAGCGCCATCTAC | 0.275 |
| GATGATTGTTCTCCCAGCTGATGAATTTTTGGATTCGAGTAAACAAATTTTCCTAATCTTTCTGTTCAAGCGCCATCTAC | 0.259 |
| GATGATTGTTCTCCCAGCTGATGAATTTCACGTTTCGAGTAAACAAATTTTCCTAATCTTTCTGTTCAAGCGCCATCTAC | 0.433 |
| GATGATTGTTCTCCCAGCTGATGAATTTTCGGTGTCGAGTAAACAAATTTTCCTAATCTTTCTGTTCAAGCGCCATCTAC | 0.401 |
| GATGATTGTTCTCCCAGCTGATGAATTATTAGGTTCGAGTAAACAAATTTTCCTAATCTTTCTGTTCAAGCGCCATCTAC | 0.47 |

| Sequence | binding signal (RPM ratio (pull-down/input)) |
| --- | --- |
| GATGATTGTTCTCCCAGCTGATGAATTGTAACGCTCGAGTAAACAAATTTTCCTAATCTTTCTGTTCAAGCGCCATCTAC | 0.598 |
| GATGATTGTTCTCCCAGCTGATGAATTCTCGGATTCGAGTAAACAAATTTTCCTAATCTTTCTGTTCAAGCGCCATCTAC | 0.254 |
| GATGATTGTTCTCCCAGCTGATGAATTCCCTACTTCGAGTAAACAAATTTTCCTAATCTTTCTGTTCAAGCGCCATCTAC | 0.301 |
| GATGATTGTTCTCCCAGCTGATGAATTGGAACGCTCGAGTAAACAAATTTTCCTAATCTTTCTGTTCAAGCGCCATCTAC | 0.292 |
| GATGATTGTTCTCCCAGCTGATGAATTATCGATTTCGAGTAAACAAATTTTCCTAATCTTTCTGTTCAAGCGCCATCTAC | 0.489 |
| GATGATTGTTCTCCCAGCTGATGAATTGCGTGACTCGAGTAAACAAATTTTCCTAATCTTTCTGTTCAAGCGCCATCTAC | 1.47 |
| GATGATTGTTCTCCCAGCTGATGAATTTGCACTTTCGAGTAAACAAATTTTCCTAATCTTTCTGTTCAAGCGCCATCTAC | 0.826 |
| GATGATTGTTCTCCCAGCTGATGAATTGAGGAAGTCGAGTAAACAAATTTTCCTAATCTTTCTGTTCAAGCGCCATCTAC | 0.178 |
| GATGATTGTTCTCCCAGCTGATGAATTGTGAAGATCGAGTAAACAAATTTTCCTAATCTTTCTGTTCAAGCGCCATCTAC | 0.332 |
| GATGATTGTTCTCCCAGCTGATGAATTCGAGCTGTCGAGTAAACAAATTTTCCTAATCTTTCTGTTCAAGCGCCATCTAC | 0.325 |
| GATGATTGTTCTCCCAGCTGATGAATTGTGCCGTTCGAGTAAACAAATTTTCCTAATCTTTCTGTTCAAGCGCCATCTAC | 2.47 |
| GATGATTGTTCTCCCAGCTGATGAATTGGCACCATCGAGTAAACAAATTTTCCTAATCTTTCTGTTCAAGCGCCATCTAC | 0.499 |
| GATGATTGTTCTCCCAGCTGATGAATTTAAGTGGTCGAGTAAACAAATTTTCCTAATCTTTCTGTTCAAGCGCCATCTAC | 0.568 |
| GATGATTGTTCTCCCAGCTGATGAATTGTGCCAATCGAGTAAACAAATTTTCCTAATCTTTCTGTTCAAGCGCCATCTAC | 1.1 |
| GATGATTGTTCTCCCAGCTGATGAATTAATGTGGTCGAGTAAACAAATTTTCCTAATCTTTCTGTTCAAGCGCCATCTAC | 0.979 |
| GATGATTGTTCTCCCAGCTGATGAATTAAGATAATCGAGTAAACAAATTTTCCTAATCTTTCTGTTCAAGCGCCATCTAC | 0.331 |
| GATGATTGTTCTCCCAGCTGATGAATTAGGTTCCTCGAGTAAACAAATTTTCCTAATCTTTCTGTTCAAGCGCCATCTAC | 0.873 |
| GATGATTGTTCTCCCAGCTGATGAATTAAAACTGTCGAGTAAACAAATTTTCCTAATCTTTCTGTTCAAGCGCCATCTAC | 0.282 |
| GATGATTGTTCTCCCAGCTGATGAATTAATTCCATCGAGTAAACAAATTTTCCTAATCTTTCTGTTCAAGCGCCATCTAC | 0.338 |
| GATGATTGTTCTCCCAGCTGATGAATTTAGCGTCTCGAGTAAACAAATTTTCCTAATCTTTCTGTTCAAGCGCCATCTAC | 4.15 |
